# Assay results taken from PubChem BioAssay AID743279 (National Center for Advancing Translational Sciences (NCATS), 2014).
# Hit rate of the full screen: of about 360,000 compounds, about 17,000 (4.7%) were called active. Inconclusive results, whose numbers are uncertain, are shown with a selection of clear calls. No stated cut-off is given here; in the data, active means activity change below about -50%; inconclusive means mostly about -30% to -49%; inactive means weaker than that.
# Assay: qHTS for Inhibitors of Inflammasome Signaling: IL-1-beta AlphaLISA Primary Screen
# Settings: THP-1 LPS/ATP IL-1B secretion, 16 h; at 57.5 µM, hits give low values
# In short: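 Secreted IL-1B measured by AlphaLISA bead assay after 16 h compound exposure of THP-1 cells; compounds (final up to 57.5 uM) added 1 h before LPS (250 ng/mL) and ATP (1.25 mM) stimulation; lower signal means less secretion.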
# On the % scale 0 is the no-effect control and ±100 the full control effect.
row,SMILES,activity change
1,O=C(CCn1nc(-c2ccccc2)ccc1=O)N1CCN(c2ccccc2)CC1,inconclusive: -31.9%
2,O=C1CCCC/C=C\C[C@H](CC(=O)N(CCO)Cc2ccccc2)C(=O)N[C@@H](c2ccccc2)CO1,inactive: 26.2%
3,CN(Cc1ccccc1)C(=O)C1CCN(Cc2ccc(F)cc2)CC1,inconclusive: -39.2%
4,COC(=O)C1(Cc2ccc(O)cc2)OC(=O)C(O)=C1c1ccc(O)cc1 (stereo not given),inactive: 6.68%
5,CCC[C@H]1CN(c2ccc(Br)cc2)C(=O)[C@@H]1CC(=O)Nc1ccc(OC)cc1,inconclusive: -38.2%
6,CCC(C(=O)c1ccc(O)cc1)c1ccccc1 (stereo not given),inconclusive: -38.7%
7,O=C(NCc1cccnc1)/C(=C\c1ccc(-c2ccc(Cl)c(Cl)c2)o1)S(=O)(=O)c1ccccc1,active: -107%
8,Oc1ccc(CCc2n[nH]c(=S)n2-c2ccc(F)cc2)cc1,inactive: 7.87%
9,CCS(=O)(=O)N1Cc2ccccc2CC1C(=O)Nc1nc2ccc(C)cc2s1 (stereo not given),inactive: 0%
10,CNC(=O)c1cccc2nc3ccccc3nc12,active: -78.6%
11,CC1=C(C(=O)N(C)C)CC(CC(=O)NCc2cccs2)C(=O)N1Cc1ccc(F)cc1 (stereo not given),inconclusive: -31.1%
12,Clc1ccc(CO/N=C/c2c(-c3ccccc3)nc3n2CCS3)c(Cl)c1,inactive: -0.04%
13,C/C(=N\NC(=O)CNc1ccccc1Cl)C(C)(C)C,inconclusive: -39.3%
14,Cc1ccc(C(=S)N2CCN(Cc3ccccc3)CC2)s1,inconclusive: -36.9%
15,CCn1c2ccccc2c2cc(NC(=O)c3ccc(Br)o3)ccc21,inconclusive: -39.1%
16,Oc1ccc(-c2csc(Nc3ccccn3)n2)cc1O,inconclusive: -37.1%
17,CCCN(CC(=O)Nc1ccccc1C)C(=O)c1ccc(-c2ccccc2)cc1,inconclusive: -30.5%
18,COc1cc(OC)cc(C(=O)Nc2ccc(-n3cnnn3)c(C)c2)c1,active: -67.5%
19,CN1CCN(CCCNC(=O)c2ccc(/C=C3\Sc4ccccc4N(Cc4ccc(F)cc4)C3=O)cc2)CC1,active: -76.5%
20,O[C@@H](c1cc(C(F)(F)F)nc2c(C(F)(F)F)cccc12)[C@H]1CCCCN1,inconclusive: -49.3%
21,COc1ccc(CN(C)C(=O)c2cc(S(=O)(=O)NCc3ccccc3)ccc2C)c(OC)c1,inconclusive: -30.8%
22,Oc1ccc(/C=N/n2cc(-c3ccccc3)[nH]c2=S)cc1,inactive: -6.15%
23,CC(NC(=O)CNC(=O)c1sc2ccccc2c1Cl)c1cccnc1 (stereo not given),active: -50.7%

row,SMILES,activity change
1,O=C(CSc1cccc2cccnc12)N1CCCC1,active: -116%
2,CC1=Nc2cc(C(=O)NCCCN3CCOCC3)ccc2Sc2c(C)ccc(C)c21,active: -73.5%
3,O=C(CCl)N1CCN(CC(=O)N2CCCC2)CC1,inconclusive: -31.6%
4,C=CCN1c2ccccc2Sc2cnccc21,inconclusive: -39.2%
5,CC(=O)Nc1c([N+](=O)[O-])cc2[nH]c(=O)[nH]c2c1[N+](=O)[O-],inconclusive: -31.9%
6,O=[N+]([O-])c1cc(N=Nc2ccc3ccccc3c2)ccc1O,inactive: 2.14%
7,COc1cc(CNC(C)(C)CO)cc(Br)c1OCc1ccc(Cl)cc1,active: -114%
8,CC1(C(=O)NCc2cccc3ccccc23)CCN1Cc1ccc(OC(F)(F)F)cc1 (stereo not given),inactive: -29.8%
9,Cc1csc(=O)n1CC(=O)OCc1cccc2ccccc12,inconclusive: -40.9%
10,COc1ccc(C(=O)NCC(=O)N/N=C/c2cn(C)c3ccccc23)cc1OC,inactive: -9.37%
11,Cc1cccc(C(=O)Nc2cccc(C(=O)NC3CCCC3)c2)c1,inconclusive: -31.7%
12,CC(C)(C)S(=O)(=O)c1nc2ccccc2s1,inconclusive: -33.2%
13,CN(c1ccc(F)cc1)S(=O)(=O)c1ccc(Cl)c(C(=O)NCC2(N3CCOCC3)CCCCC2)c1,inconclusive: -35.3%
14,Cc1ccc(NC(=O)c2sccc2C)cc1S(=O)(=O)N(C)C,inactive: -11.9%
15,O=C(Nc1ccc(C#Cc2ccccc2)cc1)C1CC1,inconclusive: -37.1%
16,O=C(NN=Cc1ccc(OC(F)F)cc1)c1ccc(NS(=O)(=O)c2cccs2)cc1,inconclusive: -45.3%
17,Cn1cc([C@]2(O)C(=O)Nc3ccc(OC(F)(F)F)cc32)c2ccccc21,inactive: 0%
18,O=c1c2[nH]c3ccc(F)cc3c2nc2n1CCCS2,inactive: -3.96%
19,O=C(CCCn1c(SCc2cccc([N+](=O)[O-])c2)nc2ccccc2c1=O)NCC1CCCO1 (stereo not given),inconclusive: -37.8%
20,CCN(Cc1ccccc1)C(=O)c1ccc(C(=O)N(CC)Cc2ccccc2)cc1,inconclusive: -32.8%
21,CCOC(=O)c1c2c3c(cccc3n(C)c1=O)C(=O)c1ccccc1-2,inconclusive: -35.2%
22,Clc1ccc(-c2cnc(Oc3ccccc3)nc2)cc1,inconclusive: -41.3%
23,COc1ccc(/C=N/Nc2ccc([N+](=O)[O-])cc2)cc1O,active: -65.6%

row,SMILES,activity change
1,Cc1cccc(NCc2ccc(Br)cc2)n1,active: -62.4%
2,CCOC(=O)CNC(=O)CSc1nc2ncc(Br)cc2[nH]1,inactive: 14.7%
3,Cc1ccc(N=C2NC(=O)/C(=C/C=C/c3ccco3)S2)cc1C,active: -91.3%
4,CC1CCN(CC(=O)Nc2ccc(S(=O)(=O)N3CCC(C)CC3)cc2)CC1,inconclusive: -34.8%
5,Oc1cc(O)cc(-c2cc3ccc(O)cc3o2)c1,inconclusive: -30.4%
6,N/C(Cc1ccc([N+](=O)[O-])cc1)=N\OC(=O)c1ccc(Br)cc1,inconclusive: -45.8%
7,O=C(NC1=NCCS1)c1cc(-c2cccs2)nc2ccccc12,active: -64.4%
8,CCN(Cc1ccccc1)C(=O)CCc1nnc(CCCc2ccccc2)o1,inconclusive: -41.8%
9,O=C(Nn1cnc2ccccc2c1=O)c1ccc(Cl)c([N+](=O)[O-])c1,inconclusive: -46.3%
10,CCOC(=O)c1[nH]ncc1CN1CCN(Cc2ccccc2)C(CCO)C1 (stereo not given),inactive: 17.9%
11,COc1cc(OC)cc(C(=O)NCC(=O)N2CCN(S(=O)(=O)c3ccccc3F)CC2)c1,inactive: 27.7%
12,O=C(COC(=O)CCCOc1ccccc1)NC1CCS(=O)(=O)C1 (stereo not given),inactive: 3.06%
13,CC(C)n1[nH]c2ccccc2c1=O,inactive: 0.703%
14,O=C(CNc1ccc2c(c1)OCO2)N/N=C\c1ccccc1Cl,inconclusive: -43.5%
15,CC(OC(=O)Cc1ccc(Br)cc1)C(=O)NC1CCCC1 (stereo not given),inactive: -1.31%
16,CCCn1c(C)nc2c(c1=O)c1nc3ccccc3nc1n2CCC1=CCCCC1,inconclusive: -46.4%
17,COc1cccc2c(SCC(=O)N/N=C/c3ccccc3)cc(C)nc12,inactive: 0%
18,CCOC(=O)/C=C(C)\C=C\c1c[nH]c2ccccc12,active: -64%
19,Cc1cccc(N2CCN(C(=O)CCC(=O)N3CCOc4ccc(Cl)cc43)CC2C)c1 (stereo not given),inconclusive: -38.3%
20,O=C(c1ccc(S(=O)(=O)Cc2cc(F)ccc2F)c([N+](=O)[O-])c1)N1CCCC1,active: -108%
21,Cn1c(SCc2cccc(C(F)(F)F)c2)nnc1-c1ccco1,inconclusive: -38.2%
22,C(=C\c1ccccc1)/CN1CCN(C(c2cccc3ccccc23)c2nnnn2C2CCCC2)CC1 (stereo not given),inconclusive: -39.6%
23,O=C(NCCc1ccccc1)C(=O)c1c(-c2ccccc2)[nH]c2ccccc12,inconclusive: -42.7%

row,SMILES,activity change
1,COc1cc(Cl)c(C)cc1NC(=O)c1ccc(S(C)(=O)=O)cc1,inconclusive: -32.8%
2,Cc1cc(/C=C2/NC(=O)N(c3ccccc3)C2=O)c(C)n1-c1cccnc1,active: -82.5%
3,CC(CN1c2ccccc2Sc2ccccc21)N(C)C (stereo not given),inconclusive: -31.2%
4,Cc1cccc(NC(=O)Nc2cccc3ccccc23)c1,inactive: -23.2%
5,COC(=O)C1=C(C)N(C)C(=O)NC1c1ccc(O)c(OC)c1 (stereo not given),inactive: 11%
6,CC12CCC(=O)N1C(C(=O)NCCN1C(=O)S/C(=C\c3ccc(F)cc3)C1=O)CS2 (stereo not given),active: -62.6%
7,COc1ccc(C(=O)Nc2ccc(Cl)cc2C(=O)NCCO)cc1,inconclusive: -35.5%
8,c1ccc(-c2nn3c(-c4ccco4)nnc3s2)nc1,inconclusive: -33.8%
9,CCN(CC)C(=O)CN(C#N)c1nc(Cl)nc(N(C)C)n1,active: -62.7%
10,CC1(C)CC(=O)C2=C(C1)NC(SCC(=O)Nc1ccccc1)=C(C#N)C2c1ccco1 (stereo not given),inconclusive: -30.9%
11,O=C(c1cc2nc(-c3ccco3)cc(C(F)(F)F)n2n1)N1CCN(c2ccc(F)cc2)CC1,active: -76.1%
12,COc1ccc2cc3cc(C(=O)N4CCCC(C)C4)oc3nc2c1 (stereo not given),inconclusive: -41.3%
13,CCc1cc2ccc(C)cc2nc1SCC(=O)c1ccc(NC(C)=O)cc1,active: -61.1%
14,Cc1nc(-c2ccc(NC(=O)CC(C)C)cc2)cs1,inconclusive: -39.3%
15,COc1ccc(-c2cc(C(F)F)n3ncc(C(=O)NCCCN4CCCC4=O)c3n2)cc1,inactive: -25%
16,CN(CC(=O)NC(=O)NCc1ccccc1)Cc1ccc(Cl)cc1,inconclusive: -45.9%
17,COc1cc(-c2nc3c4ccccc4nc(=S)n3[nH]2)cc(OC)c1OC,inactive: 22.4%
18,NC(CSC1(c2cccc3ccccc23)c2ccccc2-c2ccccc21)C(=O)O (stereo not given),inactive: 17.4%
19,CCN(CC)CCOC(=O)c1ccc(NC(=O)c2cn(-c3ccccc3)nc2-c2cccs2)cc1,active: -53.3%
20,Cc1ccc2c(c1)C(C)CC(C)(C)N2C(=O)NC1CCCCC1 (stereo not given),inactive: -4.11%
21,COc1ccc(S(=O)(=O)N2CCC(C(=O)Nc3cc(Cl)ccc3N3CCOCC3)CC2)cc1OC,inconclusive: -43.5%
